{
  "source": "FireProtDB (doi:10.1529/biophysj.107.108761)",
  "conditions": "Homo sapiens, 23 °C, GdnHCl, Fluorescence, reversible: Unknown",
  "note": "Values joined by “and” are separate entries in the source; they are usually repeats but may differ in a detail not shown here. Equal entries are not always repeated.",
  "data": [
    {"substance": "Interleukin-8 wild type (sequence left out)", "values": [
      {"measurement": "denaturant midpoint (higher = more stable)", "setting": "pH 5.2, Acetate 50 mM", "result": "3.9 M and 1.5 M"},
      {"measurement": "denaturant midpoint (higher = more stable)", "setting": "pH 7, Phosphate 50 mM", "result": "4.3 M and 3.4 M and 1.5 M"},
      {"measurement": "unfolding free energy", "setting": "pH 7, Phosphate 50 mM", "result": "6 kcal/mol and 3.2 kcal/mol and 2.2 kcal/mol"}
    ]}
  ]
}
